Read counts are not given, so values of variants with three or more changes are uncertain.
B1: LINE1-mini (parent)
chain: GGCAGAGCUCAACACAGCGUGGCAAAGUGGCUGUGGCUAGACUGCC

Variants of: B1
Experiment: self-cleavage, relative activity (ratio to wild type); higher = more cleavage; in vitro, sequencing; the parent is a self-cleaving ribozyme

| Variant | self-cleavage |
| --- | --- |
| A12C G19C U32A C45U | 0.02 |
| A12C G29A A39U | 0 |
| A12U A24C G36U C45A | 0.02 |
| A12G G29U C37U U38G | 0.01 |
| A12U C13A G30A A39U | 0.09 |
| A12G G33U G36U | 0.06 |
| A12G C23A G29U | 0.02 |
| A12G C18G C23U G27A | 0.01 |
| A12C G21A U28C G36A | 0.02 |
| A12U C15G U20A U32G G36A C37U | 0.01 |
| A12G G17U G35U | 0.1 |
| A12U A39G C42U | 0.01 |
| A12G C18G G33C A41C | 0.01 |
| A12C U20C C37A G40C G44A | 0.01 |
| A12C G29U C45U | 0.03 |
| A12C U28A G40U C42G | 0 |
| A12U C13U G35U | 0.19 |
| A12G A25U C31A G36A U38G A41C | 0 |
| A12U A14U C23A | 2.89 |
| A12G C18A C31U G36U | 0.02 |
| A12G C15A U20A A25C | 0 |

| Variant | self-cleavage |
| --- | --- |
| A12U A25C G30A U38A G40A | 0.05 |
| A12U A16G G19U G35A G40C | 0.03 |
| A12G G21A G22A G36A C37A | 0.03 |
| A12U A26U G35U | 0.13 |
| A12U C18A U43G C45G | 0.02 |
| A12U A26C C31G G44A | 0.02 |
| A12C G30A C46U | 0.01 |
| A12G G22A C37U | 0.02 |
| A12C G27A U32C | 0.02 |
| A12G C18G G22U U28C U38A | 0.02 |
| A12G C23U U34A | 0.02 |
| A12C G30C C37A | 0.02 |
| A12G A24C A26U | 0.02 |
| A12U C13A G19U G29A G35U A41U | 0.29 |
| A12C G21U G27A C37U | 0 |
| A12C G17U C42A C45U | 0.05 |
| A12G C13U A24C G29C C37G | 0.01 |
| A12G C13G G40U | 0.14 |
| A12C U20A C23A | 0.03 |
| A12G A16U C23U A26C | 0 |
| A12C U34C U43G | 0.01 |

| Variant | self-cleavage |
| --- | --- |
| A12G C15G A24C A39G A41C C45A | 0 |
| A12G U20C G27A G35C | 0.02 |
| A12G U20A A41U | 0.03 |
| A12U C13G A39U | 0.39 |
| A12G A41G C42G | 0.12 |
| A12G A25C C42G | 0.22 |
| A12G A16C U28G | 0.01 |
| A12G C23A C45U | 0 |
| A12G U20G G33U | 0.05 |
| A12G C13U C18A G19U | 0.05 |
| A12U A25G G44C | 0.06 |
| A12G G33A U34C C42A | 0.17 |
| A12G G22C C31A | 0 |
| A12G U28G G36C U43A | 0.01 |
| A12G G17A C18U A24G A39U | 0 |
| A12C G40C A41U | 0 |
| A12G G33U U34A A41U | 0.01 |
| A12U C15A U20A G29C U34C G36A | 0 |
| A12G G17A G21C G36A C45G | 0.03 |
| A12U A16U G22U A41G | 0.01 |
| A12G C15A U28C | 0.03 |

| Variant | self-cleavage |
| --- | --- |
| A12U A14C G36C C46G | 0 |
| A12U A26U G44C | 0.03 |
| A12C G29U G40U | 0.01 |
| A12G G35C C45U | 0.01 |
| A12G A24C C42A | 0.06 |
| A12U A16C G17U | 0.03 |
| A12G A16C G35A | 0.04 |
| A12U C15A G22C G27C U34C G36A C37A | 0.03 |
| A12C G22U C37A | 0.01 |
| A12C G21U C45U | 0.08 |
| A12C G19C A41G | 0.02 |
| A12G A25C G27A C37G | 0.02 |
| A12G A16C G17U C18U C45U | 0.01 |
| A12U C13A C37U A41C C46U | 0.01 |
| A12U C13U U28A | 0.05 |
| A12G C18A G19C C46U | 0.03 |
| A12C G17U C23G U28A U32G | 0.01 |
| A12G G21U C37G | 0.03 |
| A12U A26C G44C | 0.13 |
| A12G G22A U32A U38A | 0.01 |
